# According to the supplement of paper PMC3334620:
# The full ranking holds about 33,000 sequences; the median of “E-score (-0.5 to 0.5)” is about -0.012, and the highest 2% start at about 0.29. Some of the results follow.
# Target: T1, Ybr033w (UniProt P38073)
# T1 sequence: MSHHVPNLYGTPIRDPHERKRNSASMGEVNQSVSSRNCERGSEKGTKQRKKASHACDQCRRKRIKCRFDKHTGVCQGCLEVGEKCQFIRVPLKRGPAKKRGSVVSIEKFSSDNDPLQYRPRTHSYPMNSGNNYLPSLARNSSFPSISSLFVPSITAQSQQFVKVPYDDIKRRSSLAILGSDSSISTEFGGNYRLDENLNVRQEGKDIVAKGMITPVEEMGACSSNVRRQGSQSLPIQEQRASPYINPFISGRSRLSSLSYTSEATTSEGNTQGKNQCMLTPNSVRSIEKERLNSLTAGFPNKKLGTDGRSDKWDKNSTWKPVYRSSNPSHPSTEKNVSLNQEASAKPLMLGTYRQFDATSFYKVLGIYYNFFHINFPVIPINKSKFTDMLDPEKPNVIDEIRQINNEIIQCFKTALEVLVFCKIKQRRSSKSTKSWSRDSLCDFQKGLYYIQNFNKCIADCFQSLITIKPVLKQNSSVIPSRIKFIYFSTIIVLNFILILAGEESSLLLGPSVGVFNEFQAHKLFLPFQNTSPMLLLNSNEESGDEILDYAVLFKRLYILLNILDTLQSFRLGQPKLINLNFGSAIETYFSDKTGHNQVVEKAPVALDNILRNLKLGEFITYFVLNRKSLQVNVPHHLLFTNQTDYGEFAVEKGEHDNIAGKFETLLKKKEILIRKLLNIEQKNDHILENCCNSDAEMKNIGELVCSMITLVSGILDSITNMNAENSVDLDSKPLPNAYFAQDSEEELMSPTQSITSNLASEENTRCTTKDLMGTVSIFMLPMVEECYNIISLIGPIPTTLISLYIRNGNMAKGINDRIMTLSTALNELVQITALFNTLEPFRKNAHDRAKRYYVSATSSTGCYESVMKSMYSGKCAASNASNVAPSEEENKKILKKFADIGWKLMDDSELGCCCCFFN
# Experiment: PBM E-score (8-mer binding enrichment) (E-score (-0.5 to 0.5)); higher = stronger / more preferred TF binding; most listed sequences are background and not binding sites
# Conditions: protein concentration: 200 nM; construct: GST-full length
# Procedure, shortened: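 GST-tagged yeast TFs (full-length or DNA-binding domain) were made by PURExpress in vitro transcription/translation and applied at about 100-200 nM to universal all-10-mer Agilent arrays. The arrays were made double-stranded by primer extension, on fresh or once-stripped slides. Bound protein was detected with fluorescent anti-GST, and scans were normalised with masliner. Each ungapped eight-base word, pooled with its reverse complement, received an E-score (modified Wilcoxon-Mann-Whitney statistic) from the Universal PBM Analysis Suite.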
row,Sequence,PBM E-score
1,CGACTGCA,-0.126
2,AACCGACT,0.0288
3,AACAAACC,0.105
4,AGTGACTA,0.0798
5,ACAGATGC,-0.127
6,CACCCGAC,-0.212
7,CTGGCGTC,-0.172
8,CCTTTTCA,-0.0844
9,AAGCGCCA,-0.163
10,ATTCCCTA,0.157
11,AGTCCAAA,-0.029
12,ATTGTTGC,0.132
13,ACTTCAAT,0.239
14,CCAAAACG,0.0101
15,AAGAGCCC,-0.189
16,CCACAGGA,-0.0851
17,TACACCAA,-0.00646
18,AATAGTCT,0.21
19,AGGCCACT,-0.165
20,TCGCAGAA,-0.164
21,ACAGTTTC,0.227
22,AACTGCCC,-0.0882
23,GCAGTTGA,0.00275
24,CCCCAGCA,-0.147
25,TACCAAGA,0.0696

row,Sequence,PBM E-score
1,ATGTCGGC,-0.136
2,AAAGGGCT,-0.246
3,ACGCGCGT,0.102
4,AGCCTCGG,-0.209
5,ACGTACAC,0.135
6,AGATGTCA,0.0681
7,TATTATAA,0.197
8,AAGCTCCC,-0.314
9,GGTTATGA,0.0397
10,GGTGATCA,0.0304
11,CAGGCTCA,-0.00218
12,AGCGCCGG,-0.111
13,AACCAGTT,0.168
14,GGCTAAGA,-0.169
15,TACTGAAA,0.244
16,AGACATTG,-0.0749
17,ACGGAGTA,0.0765
18,GCCCCGAC,-0.295
19,CGTACACC,-0.165
20,AGCCTGAT,-0.0369
21,ATCGTCCA,-0.0597
22,ATACGCAC,0.0336
23,GGCGTCGA,0.023
24,CCGACCTC,-0.0919
25,TGTGGGAA,-0.0363

row,Sequence,PBM E-score
1,AATCATTG,0.198
2,CTCAGACA,-0.00572
3,ACGCCGTC,-0.0533
4,ACTAATGC,0.179
5,AAGAACTG,0.138
6,ATATCCTA,0.23
7,CTCTTCTA,0.0646
8,ACGTGCGG,-0.196
9,CCCCACGG,-0.205
10,GGATTTAC,0.24
11,GAAGGTAA,0.0785
12,CTCAGATC,-0.0482
13,GAATCTCA,-0.0766
14,AGCTACTC,-0.0392
15,CCACGACC,-0.0471
16,GCTACATA,-0.0144
17,CGGTCATC,-0.195
18,AGCCACTA,-0.0733
19,AGCTCGGC,-0.0694
20,CACATTAC,0.0386
21,AAAATGGG,-0.032
22,CACTATAG,-0.0228
23,GAGAAGGA,0.058
24,CCGGGCCA,-0.173
25,GTAAAGCA,0.168

row,Sequence,PBM E-score
1,ATAAATAC,0.211
2,CGAAACGA,0.204
3,AAGTTTTG,0.213
4,GCGGGCGA,-0.0848
5,ATAGATGC,0.067
6,AGATCTAC,0.0175
7,CAGTCGGA,0.071
8,CTACTAAA,0.154
9,CTTGGTTA,0.123
10,CTGAGTGC,-0.24
11,GACCCGTA,-0.233
12,CGGAGATC,-0.191
13,CAACTCTA,0.0327
14,ACCTTATG,0.0825
15,TATGATGA,0.198
16,GTCAATAA,-0.0642
17,CGCTACAA,0.111
18,AAGTAATG,0.141
19,CGGACGGC,-0.21
20,ATGTGGCA,-0.0748
21,AGTTCGCC,0.0528
22,AATGCTAG,-0.131
23,AAGCGATA,0.0888
24,CTGCGCCC,-0.362
25,ACTTGATA,0.265

row,Sequence,PBM E-score
1,CGATTGCG,0.0376
2,CCTTTACC,-0.329
3,AGCCATAG,-0.0454
4,AGTGGTGA,0.0237
5,CCGGACGC,-0.145
6,ACAAAACA,0.26
7,GTTATAAA,0.203
8,CTCACAGA,0.0459
9,ATGTAGTG,0.141
10,AAGACTTG,0.0959
11,GTTAGTAA,0.17
12,AGTTGCAG,-0.00615
13,TTACTCAA,0.177
14,AACTCCCG,-0.0286
15,ATGAAAGA,0.119
16,CATGCCAA,0.0108
17,ACTCGGCC,-0.0944
18,CTTCCCCC,-0.345
19,ATGCATAC,0.131
20,ACGCGTTC,-0.124
21,AAATAATC,0.341
22,CGACTCCG,-0.248
23,TGGGCAAA,0.0292
24,CTAAAATA,0.147
25,AAAGCGCA,0.0587

row,Sequence,PBM E-score
1,GAGCCATC,-0.136
2,CCCTCCCG,-0.17
3,CCACGAAA,-0.0785
4,CTCCGCTA,-0.0833
5,AAGTCCGC,-0.125
6,CGCCTGCC,-0.423
7,GCTACCGA,-0.116
8,AGGTCCGG,-0.139
9,ACAGAACG,-0.0702
10,CCGAGAAC,0.155
11,ACGCTGCA,-0.114
12,GCTCTCAC,-0.308
13,CCTCACCC,-0.0599
14,AAGCTCAT,-0.0323
15,AGGATCCA,-0.0511
16,AACGCTAC,-0.143
17,AACCTCTT,0.122
18,ATATCGTC,0.033
19,GCAAATCA,-0.116
20,CAAAACTA,0.217
21,AATCCTCA,0.117
22,AAGCTGCC,-0.303
23,CAACCGTA,-0.239
24,AAATAGCG,0.0616
25,GGATCGAA,-0.0107

row,Sequence,PBM E-score
1,CGCTATCA,-0.0322
2,GACGCACC,-0.15
3,ACACCTTG,-0.0348
4,AACTCCCA,-0.0757
5,AGGCCTAA,-0.00615
6,ATAATATG,0.273
7,CCGTTTTC,0.147
8,CCCCTGTC,-0.343
9,ACCTTGTA,0.202
10,GTCGGTGA,-0.133
11,GATCCCTA,-0.0658
12,CACGAAAA,0.127
13,CAATGTAC,-0.103
14,GGATCAAC,0.369
15,GATGACTA,-0.023
16,ATACTAGC,0.0225
17,AGCGGACT,-0.242
18,AACGTTAA,0.212
19,ATTAGGAA,0.286
20,GATTTCCC,0.0546
21,CGGCTAAC,0.0375
22,ATCCGGAC,-0.0654
